The values below come from a collection of fitness landscapes (doi:10.1126/science.1257360).

To fix the notation:
B1: PhoQ; a variant is named by its letters at X, in order, P23837 (parent)
chain: MKKLLRLFFPLSLRVRFLLATAAVVLVLSLAYGMVALIGYSVSFDKTTFRLLRGESNLFYTLAKWENNKLHVELPENIDKQSPTMTLIYDENGQLLWAQRDVPWLMKMIQPDWLKSNGFHEIEADVNDTSLLLSGDHSIQQQLQEVREDDDDAEMTHSVAVNVYPATSRMPKLTIVVVDTIPVELKSSYMVWSWFIYVLSANLLLVIPLLWVAAWWSLRPIEALAKEVRELEEHNRELLNPATTRELTSLVRNLNRLLKSERERYDKYRTTLTDLTHSLKTPLXXLQXXLRSLRSEKMSVSDAEPVMLEQISRISQQIGYYLHRASMRGGTLLSRELHPVAPLLDNLTSALNKVYQRKGVNISLDISPEISFVGEQNDFVEVMGNVLDNACKYCLEFVEISARQTDEHLYIVVEDDGPGIPLSKREVIFDRGQRVDTLRPGQGVGLAVAREITEQYEGKIVAGESMLGGARMEVIFGRQHSAPKDE

The list shows a part of the results.

Variants of B1 are the subject of this assay. In words: enrichment ratio after two sorts for PhoP signalling (ratio (wild type AVST 3.29)); higher = more functional. The conditions noted are these: with PhoP (E. coli).
Turning to AGCQ, the enrichment ratio amounted to 23.
To NMKA belongs no more than 0.25; to DCMW, no more than 0.25; to MMIA, no more than 0.25.
To WSQL belongs no more than 0.25; to WSTK, no more than 0.25.
The same measure for VRGK: no more than 0.25.
For YKWE, the enrichment ratio is no more than 0.25.
In the case of GCKP, the enrichment ratio is no more than 0.25.
The same measure for HDHE: no more than 0.25.
Consider HECR, for which the enrichment ratio is no more than 0.25.
To SQFS belongs 1.64.
On to TKIW, for which the enrichment ratio was no more than 0.25.
Regarding TCGE, the enrichment ratio stood at 3.66.
To DNLD belongs no more than 0.25; to RRAV, no more than 0.25; to SGTK, no more than 0.25.
The same measure for WFGD: no more than 0.25; for SQHN: no more than 0.25.
The same measure for PPIE: no more than 0.25; for FVMQ: 1.68.
For the variant PGPN, the enrichment ratio is no more than 0.25.
SQLI: the enrichment ratio was 11.8.
To IGGA belongs no more than 0.25; to HWQR, no more than 0.25; to GGHH, no more than 0.25.
The same measure for QTAT: no more than 0.25.
In the case of PKYW, the enrichment ratio was no more than 0.25.
The same measure for AKMT: 52.1; for YNRE: no more than 0.25; for RQRD: no more than 0.25.
As for YVRL, the enrichment ratio is no more than 0.25.
To MQCK belongs no more than 0.25; to YLNM, no more than 0.25.
As for KYHQ, the enrichment ratio is no more than 0.25.
The same measure for NQVY: no more than 0.25.
NIKI: the enrichment ratio is no more than 0.25.
To WFWI belongs no more than 0.25.
On to FWNL, for which the enrichment ratio is no more than 0.25.
To YMSA belongs no more than 0.25; to DPHH, no more than 0.25.
Consider FHLG, for which the enrichment ratio is no more than 0.25.
The same measure for WVWQ: no more than 0.25; for ALKP: no more than 0.25.
To GHQA belongs no more than 0.25.
The same measure for SRQA: no more than 0.25; for YGNT: no more than 0.25.
Turning to RINN, the enrichment ratio is no more than 0.25.
The same measure for HLQW: no more than 0.25; for GMFL: no more than 0.25.
Regarding AFMR, the enrichment ratio was no more than 0.25.
To KTWP belongs no more than 0.25; to LFMK, no more than 0.25.
The same measure for DRFM: no more than 0.25.
To KIMS belongs no more than 0.25.
Consider LMSG, for which the enrichment ratio is no more than 0.25.
For AENF, the enrichment ratio was no more than 0.25.
The same measure for IKVP: no more than 0.25; for MICS: 1.95; for HMGV: no more than 0.25.
To KCYD belongs no more than 0.25.
The same measure for DAGG: no more than 0.25; for LDPG: no more than 0.25; for RYGP: no more than 0.25.
Take FIHA: the enrichment ratio was no more than 0.25.
The same measure for FGFT: no more than 0.25; for GMDP: no more than 0.25.
For the variant RNHE, the enrichment ratio was no more than 0.25.
To MSYD belongs no more than 0.25; to IIDA, no more than 0.25.
The same measure for NRWI: no more than 0.25; for PNSG: no more than 0.25.
As to AVLL, the enrichment ratio is 3.31.
The same measure for DYAP: no more than 0.25; for MHMP: no more than 0.25; for GYWH: no more than 0.25.
To WRLT belongs no more than 0.25.
Turning to GIWE, the enrichment ratio is no more than 0.25.
To MCAG belongs 8.12.
The same measure for FLPT: no more than 0.25; for AEYV: no more than 0.25.
REGV: the enrichment ratio was no more than 0.25.
The same measure for DFMI: no more than 0.25; for VESA: no more than 0.25.
As to NDYQ, the enrichment ratio was no more than 0.25.
Turning to KECN, the enrichment ratio is no more than 0.25.
The same measure for DVIH: no more than 0.25; for QQPL: no more than 0.25.
To WHLQ belongs no more than 0.25; to QTPI, no more than 0.25; to FSYH, no more than 0.25.
The same measure for AASD: no more than 0.25.
FDWQ: the enrichment ratio is no more than 0.25.
The same measure for CVPV: no more than 0.25.
NHSD: the enrichment ratio is no more than 0.25.
The same measure for TNNC: 11.1; for GDIN: no more than 0.25.
To HMNM belongs no more than 0.25; to HMCV, no more than 0.25.
To FPIH belongs no more than 0.25.
As to VRAY, the enrichment ratio was no more than 0.25.
To DGVR belongs no more than 0.25; to FRKL, no more than 0.25; to WDYY, no more than 0.25.
In the case of WHIF, the enrichment ratio is no more than 0.25.
To LVVT belongs no more than 0.25.
The same measure for NDQC: 8.9; for FTGA: no more than 0.25.
The same measure for NSEN: no more than 0.25; for QQPR: no more than 0.25; for LCTG: no more than 0.25.
As for RVHN, the enrichment ratio is no more than 0.25.
As to DWSR, the enrichment ratio is no more than 0.25.
To FYIP belongs no more than 0.25.
To PTKW belongs no more than 0.25.
The same measure for RWHV: no more than 0.25; for FAVA: no more than 0.25; for VHQK: no more than 0.25.
As to LHEC, the enrichment ratio is no more than 0.25.
Consider DSAH, for which the enrichment ratio was no more than 0.25.
The same measure for ASHK: no more than 0.25; for FEPS: no more than 0.25.
To GLMY belongs no more than 0.25.
The same measure for LRMF: no more than 0.25.
HALQ: the enrichment ratio was 7.8.
With MEFH, the enrichment ratio was 4.99.
To KLWL belongs no more than 0.25.
The same measure for HNIF: no more than 0.25.
To TDLA belongs 14.
With AIVM, the enrichment ratio is 1.42.
The same measure for ARES: no more than 0.25; for SFPS: no more than 0.25; for LVKL: no more than 0.25.
The same measure for LCPF: no more than 0.25; for RPRT: no more than 0.25; for WYYL: no more than 0.25.
WARF: the enrichment ratio is no more than 0.25.
The same measure for VPPI: no more than 0.25.
To YIID belongs no more than 0.25; to YETS, no more than 0.25.
With GYAY, the enrichment ratio is no more than 0.25.
Regarding YKRA, the enrichment ratio is no more than 0.25.
To QNSE belongs no more than 0.25; to PANI, no more than 0.25.
The same measure for VYSA: no more than 0.25.
Turning to LISH, the enrichment ratio is no more than 0.25.
Take QDVA: the enrichment ratio is no more than 0.25.
The same measure for RSVR: no more than 0.25; for YQRH: no more than 0.25; for GHWS: no more than 0.25.
To WTSV belongs no more than 0.25.
Turning to QFME, the enrichment ratio was no more than 0.25.
To LHCG belongs no more than 0.25.
To KEYC belongs no more than 0.25.
The same measure for QTMN: no more than 0.25.
As for PMFA, the enrichment ratio was no more than 0.25.
The same measure for DCVA: no more than 0.25.
To RCAH belongs no more than 0.25.
To DFVL belongs no more than 0.25.
WCAW: the enrichment ratio was no more than 0.25.
The same measure for IATE: no more than 0.25; for AYAH: no more than 0.25.
Consider NMLI, for which the enrichment ratio was no more than 0.25.
To MSKY belongs no more than 0.25; to LCIS, no more than 0.25.
Consider AIYL, for which the enrichment ratio is no more than 0.25.
The same measure for NECC: no more than 0.25; for PTAW: no more than 0.25; for KHHD: no more than 0.25.
On to YRTF, for which the enrichment ratio was no more than 0.25.
The same measure for RCMV: no more than 0.25; for IMEC: no more than 0.25.
The same measure for RKNH: no more than 0.25; for EHWV: no more than 0.25; for RNPI: no more than 0.25.
To SPAG belongs no more than 0.25; to MDTI, no more than 0.25; to NWCM, no more than 0.25.
In the case of HTSS, the enrichment ratio was no more than 0.25.
The same measure for EYPV: no more than 0.25; for PMSE: no more than 0.25.
The same measure for GNMF: 15.2.
The same measure for IVTH: no more than 0.25; for MSNY: no more than 0.25; for LTWI: no more than 0.25.
With VDTV, the enrichment ratio is no more than 0.25.
In the case of HPDW, the enrichment ratio is no more than 0.25.
The same measure for VQCV: no more than 0.25.
DFPT: the enrichment ratio was no more than 0.25.
The same measure for SCCN: 17.1; for NTRR: no more than 0.25; for MNWT: 3.6.
The same measure for FFTR: no more than 0.25.
To ILAP belongs no more than 0.25.
Regarding KADM, the enrichment ratio was no more than 0.25.
